Among the data in patent US20210054047A1 (KOREA INSTITUTE OF SCIENCE AND TECHNOLOGY, published 2021) are Kd, koff and kon values, retold here.

The assay addresses T1, monomeric TRAIL (mTRAIL) extracellular domain (Homo sapiens (Human), UniProt P50591 95-281).
T1 construct: Expressed in E. coli from pET28a-mTRAIL and purified on Ni-NTA; a vector tag is not spelled out
The experiment in a line: SPR, DR5-Fc captured on Protein A chip, 25° C., 1:1 Langmuir model. As for the experimental part: DR4 and DR5-fc chimeric proteins (R&D systems 347-DR-100, 631-T2-100) were immobilized on the surface of the Planar Protein A sensor chip (Reichert, 13206069) and the receptors were coated at a level of 300 to 500 resonance units. […] Each analyte was run at 50 μL/min using running and sample buffer (0.5 M Tris-HCl (pH 7.4), 150 mM NaCl, 0.005% Tween 20), and binding of the ligand to the receptor was performed and monitored in real time. For titration sensorgrams, a simple 1:1 Langmuir interaction model (A+B↔AB) was applied using the data analysis program Scrubber 2.0 (BioLogic Software, Australia, and KaleidaGraph Software, Australia) and CLAMP software.
The affinity KD was determined from the formula of KD=kd/ka.

B1: DR5-Fc chimeric protein (R&D systems 631-T[…]) (Fc fusion)
chain: not shown
notes: Bought (R&D systems 631-T[…]); Captured on a Protein A sensor chip; also called TRAIL R2; death receptor 5; Fc part of the bought chimera not given
Regarding B1, the Kd (usually the constant that tells how readily two partners part at equilibrium) came to 25.4 nM; the off-rate constant (koff) (in general, the first-order rate constant of dissociation) is 3.87e-05 s⁻¹; the kon (as a rule, a measure of how fast the partners come together) was found to be 1480 M⁻¹ s⁻¹.
